# From PubChem BioAssay AID463173 (ICCB-Longwood Screening Facility, Harvard Medical School, 2010)
# The whole screen tested about 52,000 compounds, of which about 4,300 (8.3%) were called active. Rule as the data show it: active = survival mostly below about 52% (no sharp cut-off); inactive = mostly above about 56%. Some of the results follow.
# Test system: DeltatarO mutant
# Assay: S. aureus survival, RN4220 and DeltatarO strains – OD600, teichoic acid synthesis inhibitors, primary screen (AID 463173)
# Settings: S. aureus RN4220 wild type/DeltatarO growth, OD600, 18 h, stronger effect = lower value, screened at 18.75 µg/mL (by protocol)
row,Structure (SMILES),survival
1,Cc1ccc(N(Cc2cccs2)C(=O)c2ccccc2Cl)cc1,inactive: 78%
2,CC1(NS(C)(=O)=O)CC=CC1,inactive: 115%
3,C#Cc1ccc(C#C)cc1,inactive: 95%
4,CCOC(=O)c1ccc(NC(=O)c2cc3sccc3n2Cc2ccc(Cl)cc2)cc1,inactive: 79%
5,O=C(OCC1CCNCC1)c1ccc(F)cc1,inactive: 100%
6,Cc1ccc(-n2c(=O)c3ccc(C(=O)NCc4ccco4)cc3n(Cc3ccccc3C#N)c2=O)cc1,inactive: 129%
7,Cn1c(=O)c2cc(C(=O)NCCCN3CCN(c4ccccc4F)CC3)sc2c2ccccc21,inactive: 82%
8,COc1ccc(NC(=O)c2ccc3c(c2)sc2nc(-c4ccc(OC)cc4)cn23)cc1,inactive: 61%
9,Cc1ccc(NC(=O)Cn2c(=O)n(Cc3ccco3)c(=O)c3ccccc32)c(C)c1,inactive: 84%
10,CCOc1ccc(C2CC(=O)N(c3cccc(F)c3)C3=C2C(=O)OC3)cc1 (stereo not drawn),inactive: 120%
11,CCN(CC)c1cc2c(cc1F)c(=O)c(S(=O)(=O)c1cccc(C)c1)cn2C,inactive: 87%
12,Cc1ccc(-c2cn(-c3cccc(Cl)c3)c(S(=O)(=O)CC(=O)Nc3ccccc3F)n2)cc1,inactive: 61%
13,O=C(Nc1ccc(C(F)(F)F)cc1)N1C2CCC1CC(O)(c1cccnc1)C2 (stereo not drawn),inactive: 65%
14,CCOc1ccccc1NC(=O)C(CC)Sc1nc2ccncc2[nH]1 (stereo not drawn),inactive: 122%
15,COc1ccc(CCNC(=O)c2ccc(Cn3c(=O)c4ccccc4n(Cc4cccc(Cl)c4)c3=O)cc2)cc1OC,inactive: 91%
16,CC(C)c1ccc(NS(=O)(=O)c2ccc3nc(-c4ccccc4)[nH]c3c2)cc1,inactive: 67%
17,CC(Sc1nnc(-c2ccco2)n1-c1ccccc1)C(=O)NC(c1ccccc1)c1ccccc1 (stereo not drawn),inactive: 86%
18,COc1ccc(NCc2cc3cc4c(cc3n(CC(=O)Nc3cc(C)ccc3C)c2=O)OCCO4)cc1,inactive: 78%
19,CCOc1ccc(CN2CCc3nc(Nc4ccc5c(c4)OCCO5)ncc3C2)cc1,inactive: 89%
20,Cc1cccc(Nc2nc3nonc3nc2N/N=C\c2cccs2)c1C,inactive: 69%
21,Cc1nn2c(=O)cc(COC(=O)c3ccccc3NC(=O)C(C)Oc3ccccc3)nc2s1 (stereo not drawn),inactive: 95%
22,CCc1ccc2ncc(C(=O)c3ccc(C)c(C)c3)c(N3CCC(C(N)=O)CC3)c2c1,inactive: 86%

row,Structure (SMILES),survival
1,CCCOc1ccc(C(=O)N(Cc2ccccc2Cl)C2CCS(=O)(=O)C2)cc1 (stereo not drawn),inactive: 65%
2,COc1ccc(C2=Nc3ccc(F)cc3NC(c3cccc(C(F)(F)F)c3)=N2)cc1,inactive: 68%
3,Cc1ccc(Cn2c(CNC(=O)CCc3ccccc3)nc3cccnc32)cc1,inactive: 97%
4,Cc1cccc(N2CCN(Cc3nnc(-c4ccccc4C)o3)CC2C)c1 (stereo not drawn),active: 33%
5,COC(=O)c1ccccc1NC(=O)c1cnc(Nc2ccc(OC)cc2)c2ccccc12,inactive: 61%
6,CCOc1cc(Br)cc(C2NC(=O)c3c(sc4c3CCN(C)C4)N2)c1O (stereo not drawn),inactive: 59%
7,CCC1CCCCN1C(=O)c1cc2cc(OC)ccc2oc1=O (stereo not drawn),inactive: 111%
8,COCCCNC(=O)CCCn1c(SCC(=O)c2ccc(F)cc2)nc2c(sc3ccccc32)c1=O,inactive: 73%
9,COc1ccc(CNC(=O)CSc2ncc3c(n2)-c2ccc(Cl)cc2N(Cc2ccc(F)cc2)S3(=O)=O)cc1OC,inactive: 112%
10,O=C(CSc1c2c(nc3ccccc13)CCC2)Nc1ccc(F)cc1,inactive: 127%
11,COc1ccc(Cn2c(C(=O)O)c(CNCc3ccco3)c3ccc(OC)cc32)cc1,inactive: 69%
12,CC(C)c1c(O)c2ccccc2[nH]c1=O,inactive: 81%
13,COc1ccc(-n2cnc3cc(C(=O)NC4CCCC4)ccc32)cc1,inactive: 101%
14,CCOC(=O)c1ccc(NC(=O)CSc2nnc3c4ccccc4n(CC)c3n2)cc1,inactive: 72%
15,CCCCNc1c2c(c(C#N)c3nc4ccccc4n13)CCC2,inactive: 110%
16,Cc1ccc(CCNC(=O)CCCn2c(=O)c3ccccc3n(Cc3ccccc3C)c2=O)cc1,inactive: 88%
17,O=C(COc1ccc(F)cc1)NCC(c1ccc(Cl)cc1)N1CCCCC1 (stereo not drawn),inactive: 96%
18,COc1cc(OC)c(-c2cc(C(=O)NCc3ccc(F)cc3)c3c(-c4ccccc4)[nH]nc3n2)cc1OC,inactive: 98%
19,COc1ccc(CCNC(=O)Cn2c(=O)n(-c3ccccc3)c(=O)c3c(C)c(C)sc32)cc1OC,active: 84%
20,CC(=O)N1c2ccc(S(=O)(=O)N3CCCCCC3)cc2CC1C(=O)NCc1ccccc1C (stereo not drawn),inactive: 70%
21,CCCCOc1cccc(C(=O)N(Cc2ccc(N(C)C)cc2)C2CCS(=O)(=O)C2)c1 (stereo not drawn),inactive: 56%
22,O=C(Cn1cnc(S(=O)(=O)N2CCCC2)c1)Nc1cccc(Br)c1,inactive: 67%

row,Structure (SMILES),survival
1,NC(=O)c1nsc(C(=O)N(CC(=O)NCc2ccc3c(c2)OCO3)C2CCCCC2)c1N,inactive: 83%
2,Cc1cc(-c2nc3ncccc3o2)ccc1NC(=O)c1ccccc1Br,active: 27%
3,COc1cccc(Oc2nc(C)nc3c2oc2ccccc23)c1,active: 25%
4,Cc1c(C(=O)NCc2cccc(Cl)c2)sc2nc[nH]c(=O)c12,inactive: 81%
5,CCOc1ccccc1NC(=O)C1CCN(S(=O)(=O)c2cccs2)CC1,inactive: 58%
6,CC(CNC(=O)CCc1cn(Cc2ccccc2Cl)c2ccccc12)c1ccccc1 (stereo not drawn),inactive: 66%
7,CCOc1ccc(NC(=O)Cn2ccn3nc(-c4ccc(OC)c(OC)c4)cc3c2=O)cc1,inactive: 102%
8,Cc1cc(C)cc(NC(=O)Nc2ccc3nc(N4CCN(C)CC4)cc(C)c3c2)c1,inactive: 117%
9,Cc1nc(N2CCCC2)c2c(C(=O)Nc3cccc(Cl)c3)c(C)oc2n1,active: 20%
10,CCCS(=O)(=O)c1nc(S(=O)(=O)c2ccc(C)cc2)c(NCc2ccccc2Cl)s1,inactive: 103%
11,CC(=O)N1CCOc2cc(S(=O)(=O)NCc3ccc(F)cc3)c(C)cc21,inactive: 88%
12,COc1ccc(-n2nc(C(=O)N3CCN(c4ccccc4OC)CC3)c3c4ccccc4n(C)c3c2=O)cc1Cl,inactive: 123%
13,COc1ccccc1CNC(=O)CCCN1C(=O)CSc2c1c(C)nn2-c1ccccc1,inactive: 86%
14,CC(C)C1N=C2c3ccccc3N=C(SCC(=O)NCc3ccc(Cl)cc3)N2C1=O (stereo not drawn),inactive: 75%
15,O=C(Nc1ccc2c(c1)CCCN2C(=O)c1cccs1)c1ccccc1,inactive: 89%
16,O=C(Cn1c(=O)n(Cc2ccccc2)c(=O)c2sc3ccccc3c21)Nc1ccccc1F,inactive: 108%
17,O=C(NC1CCCc2ccccc21)c1ccc2c(c1)sc1nc(-c3ccccc3)cn12 (stereo not drawn),inactive: 67%
18,Cc1ccc2oc(-c3cccc(NC(=O)Cc4ccc(Cl)cc4)c3)nc2c1,inactive: 72%
19,CSc1ccc(NC(=O)N2C3CCC2CC(O)(c2cccnc2)C3)cc1 (stereo not drawn),inactive: 79%
20,CCOC(=O)c1cccc(NS(=O)(=O)c2cc(-c3cnc(C4CC4)o3)ccc2C)c1,inactive: 90%
21,Cc1c(C(=O)OC(C)C)sc(NC(=O)C2c3ccccc3Oc3ccccc32)c1C(=O)OC(C)C,inactive: 80%
22,NC(=O)N/N=C/c1ccc(-c2ccc(Cl)cc2)o1,inactive: 87%

row,Structure (SMILES),survival
1,Cc1ccc(Sc2c(C)nn(C(=O)c3ccc(Cl)cc3)c2C)cc1,active: 19%
2,Cc1ccc(-n2c3nc(=O)[nH]c(=O)c-3cc3c(C)nn(-c4ccccc4)c32)cc1C,inactive: 107%
3,CCOC(=O)c1c(S(=O)(=O)N2CCCC(C(=O)Nc3ccc(C)cn3)C2)c(C)n(C)c1C (stereo not drawn),inactive: 72%
4,CCCOc1nc(N)c(C#N)c(-c2ccccc2F)c1C#N,inactive: 84%
5,CC1(C)CC(=O)c2cc(C#N)c(=O)n(-c3ccc(Cl)cc3)c2C1,inactive: 52%
6,O=C(O)CCC(=O)Nc1sc2c(c1C(=O)Nc1ccccc1)CCCCC2,inactive: 92%
7,CCc1ccc(NC(=O)c2ccc(F)c(S(=O)(=O)N3CCN(c4ccc(OC)cc4)CC3)c2)cc1,inactive: 76%
8,Cc1ccsc1CN(C(=O)c1ccc(OCC(C)C)cc1)C1CCS(=O)(=O)C1 (stereo not drawn),inactive: 83%
9,CC(C)CN(CC(C)C)C(=O)C1CCCN(S(=O)(=O)c2ccc3c(c2)oc(=O)n3C)C1 (stereo not drawn),inactive: 98%
10,COc1cccc(NC(=O)c2nn(-c3ccc(C)cc3)c(=O)n(C)c2=O)c1,inactive: 124%
11,Cc1cc(C)c2nc(N3CCCC(C(=O)NCc4cccc(Cl)c4)C3)sc2c1 (stereo not drawn),inactive: 65%
12,COc1ccc(CNS(=O)(=O)c2cc3c(cc2C)n(C)c(=O)c(=O)n3C)cc1,inactive: 91%
13,Cc1ccc(NS(=O)(=O)c2ccc3c(c2)NC(=O)C(C)C(=O)N3)cc1F (stereo not drawn),inactive: 69%
14,CCc1ccc(CNC(=O)c2ccc3nc(SCc4ccc(F)cc4)n(C)c3c2)cc1,inactive: 94%
15,Cc1ccc(NC(=O)CSc2cc(=O)n(C)c3ccc(Cl)cc23)c(Br)c1,inactive: 79%
16,Cc1cccc(N2CCN(C(=O)c3cc4c(=O)oc5ccccc5c4s3)CC2C)c1 (stereo not drawn),inactive: 45%
17,COC(=O)CSc1nc2ccccc2s1,inactive: 94%
18,Cc1ccc(-n2nc(C(=O)N3CCN(c4cccc(C(F)(F)F)c4)CC3)c(=O)n(C)c2=O)cc1,inactive: 90%
19,COc1cc(NC(=O)CN2C(=O)C(c3ccc(C)cc3)=NC23CCCCC3)cc(OC)c1,inactive: 96%
20,Cc1oc2ccc(O)c(CN3CCOCC3)c2c1C(=O)Nc1ccccc1,inactive: 74%
21,Cc1ccc(CNc2ccc(-c3nc(C(C)C)no3)cc2[N+](=O)[O-])cc1,inactive: 60%
22,Cc1ccc(-n2c(=O)c3c(c4cc(C)ccc4n3C)n(CC(=O)Nc3c(C)cccc3C)c2=O)cc1,inactive: 123%
